# Hit rate of the full screen: of about 390,000 compounds, about 17,000 (4.4%) were called active. This list was built around the results that the source calls inconclusive (neither active nor inactive); the mix of calls is not that of the screen. Calls follow the shape of the dose curve; as a rule, active = well fitted inhibition curve with a large enough effect; inconclusive = small, poorly fitted or top-dose-only effect; inactive = no such curve, though single readings can be large or run the other way. Potencies beside an inconclusive call are fits to weak or partial responses and may not hold up.
# Biological target: Lysine-specific demethylase 4A (Homo sapiens) (UniProt O75164)
# UniProt O75164, sequence (O75164 whole entry, looked up, the tested form may be a part): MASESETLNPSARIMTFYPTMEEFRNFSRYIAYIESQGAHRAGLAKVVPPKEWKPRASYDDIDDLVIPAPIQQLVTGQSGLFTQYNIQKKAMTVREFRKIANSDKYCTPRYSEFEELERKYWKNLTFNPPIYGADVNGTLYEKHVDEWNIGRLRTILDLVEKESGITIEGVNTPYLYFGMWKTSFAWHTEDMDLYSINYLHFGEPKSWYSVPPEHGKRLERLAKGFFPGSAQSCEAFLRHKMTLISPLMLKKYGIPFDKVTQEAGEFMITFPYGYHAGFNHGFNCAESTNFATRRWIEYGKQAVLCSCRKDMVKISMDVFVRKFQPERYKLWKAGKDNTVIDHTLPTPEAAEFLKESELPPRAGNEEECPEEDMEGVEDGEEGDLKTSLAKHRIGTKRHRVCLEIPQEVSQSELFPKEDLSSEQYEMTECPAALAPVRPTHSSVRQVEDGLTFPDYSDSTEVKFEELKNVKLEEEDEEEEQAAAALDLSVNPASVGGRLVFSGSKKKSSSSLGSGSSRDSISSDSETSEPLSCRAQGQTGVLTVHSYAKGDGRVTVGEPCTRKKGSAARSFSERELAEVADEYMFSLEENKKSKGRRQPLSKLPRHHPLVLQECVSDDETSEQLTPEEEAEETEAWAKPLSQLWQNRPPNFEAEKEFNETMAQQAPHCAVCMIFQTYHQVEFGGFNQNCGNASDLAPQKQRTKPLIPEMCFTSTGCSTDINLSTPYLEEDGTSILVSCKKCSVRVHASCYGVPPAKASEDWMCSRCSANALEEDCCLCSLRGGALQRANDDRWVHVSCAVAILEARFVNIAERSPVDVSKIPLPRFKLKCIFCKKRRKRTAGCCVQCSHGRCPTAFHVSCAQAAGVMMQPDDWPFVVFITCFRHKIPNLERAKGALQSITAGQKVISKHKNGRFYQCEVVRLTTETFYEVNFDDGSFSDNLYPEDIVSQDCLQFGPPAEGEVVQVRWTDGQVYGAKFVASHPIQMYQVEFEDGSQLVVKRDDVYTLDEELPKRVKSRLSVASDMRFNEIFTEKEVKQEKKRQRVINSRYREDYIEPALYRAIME
# Test: qHTS Assay for Inhibitors of JMJD2A-Tudor Domain; also: nearly all actives have a fitted effect of over 50% in size
# Conditions: AlphaScreen JMJD2A-Tudor / H3K4me3 peptide binding; series mostly up to 114 µM
# Potency is read from the fitted curve at half-maximal effect; tags tell the direction and shape of the fitted curve.
row,SMILES,Potency
1,CC(=O)Nc1ccc(SCCC2CCCCN2C)cc1 (configuration not stated),inactive
2,Cc1ccc(CNC(=O)c2c(O)nc3ccccn3c2=O)cc1,inactive
3,CCOC(=O)C1=C(N)Oc2cc(O)ccc2C1c1cccc(Cl)c1 (configuration not stated),"inconclusive: 35.5 µM [inhibitor, full curve, poor fit]"
4,COc1cccc(CNC(=O)c2sc3nc4n(c(=O)c3c2C)CCC4)c1,inactive
5,O=C(Nc1ccc(-c2nc3ccccc3s2)c(O)c1)C1=COCCO1,"inconclusive: 44.7 µM [inhibitor, partial curve]"
6,COc1ccc(N/C=C2/CCCCC2=O)cc1,"inconclusive: 100 µM [inhibitor, partial curve]"
7,C/C(CCc1ccc2c(c1)OCO2)=N\NC(=O)c1ccccc1,inactive
8,COc1ccc(OCc2cc(C(=O)N(C)Cc3nccn3C)no2)c2ccccc12,"inconclusive: 56.2 µM [inhibitor, partial curve]"
9,O=S(=O)(c1ccc(C(F)(F)F)cc1)N1CCN(S(=O)(=O)c2ccc3c(c2)OCCO3)CC1,inactive
10,O=C(CNC(=O)c1[nH]cnc1C(=O)NC(c1ccccc1)c1ccccc1)OCc1ccccc1,"inconclusive: 17.8 µM [inhibitor, full curve]"
11,COc1cc(C2NC(=O)C(C#N)=C(S)N2c2ccc(C)cc2)ccc1OC(C)C (configuration not stated),inactive
12,S=c1[nH]nc(Cc2n[nH]c(=S)n2-c2ccccc2)n1-c1ccccc1,active: 8.91 µM
13,CCOC(=O)CC(=O)CSc1nc2c(cc1C#N)CCCCC2,active: 50.1 µM
14,CC(C)C(=O)Nc1nnc(S(=O)(=O)N2CCCCCC2)s1,"inconclusive: 4.47 µM [inhibitor, full curve, poor fit]"
15,Cc1cccc(CS(=O)(=O)c2cn(CC(=O)N3CCOCC3)c3ccccc23)c1,inactive
16,Cc1sc(C(C2C(=O)CC(C)(C)CC2=O)C2C(=O)CC(C)(C)CC2=O)cc1[N+](=O)[O-],active: 28.2 µM
17,NC(=O)C1CCN(C(=O)CCc2nc3sc4c(c3c(=O)[nH]2)CCCC4)CC1,"inconclusive: 39.8 µM [inhibitor, partial curve]"
18,NC(=O)C1(NC2CCCCC2)CCN(Cc2ccccc2)CC1,inactive
19,CN(C)c1ccc(CNC(=O)CN2C(=O)c3cccnc3Oc3ccc(Cl)cc32)cc1,inactive
20,CC(=NCCCn1ccnc1)c1c(O)n(Cc2ccccc2)c(=O)[nH]c1=O,inactive
21,Cc1oc2ccc(O)c(CN3CCN(Cc4ccccc4)CC3)c2c1C(=O)Nc1ccccc1,"inconclusive: 56.2 µM [inhibitor, partial curve]"
22,CC(=O)Nc1ccc(SCC(=O)NC(=O)c2ccccc2Br)cc1,inactive
23,CC(O)CNC(=S)Nc1ccccc1 (configuration not stated),inactive
24,Cc1cc(Br)c(Oc2cc(NN3CCCCC3)c([N+](=O)[O-])cc2[N+](=O)[O-])c(Br)c1,"inconclusive: 3.98 µM [inhibitor, full curve, poor fit]"

row,SMILES,Potency
1,O=C1NN=COc2ccccc21,inactive
2,COc1ccc(NC(=S)N(CCc2c(C)[nH]c3ccc(C)cc23)Cc2cccnc2)cc1,active: 50.1 µM
3,CCOc1cc(/C=N/NC(=O)CN2CCCCC2)ccc1OCc1ccc(Cl)cc1,"inconclusive: 56.2 µM [inhibitor, partial curve]"
4,CC1C(=O)N2CCCc3cc(NC(=O)C(=O)NCCc4c[nH]c5ccccc45)cc1c32 (configuration not stated),"inconclusive: 7.08 µM [inhibitor, full curve, poor fit]"
5,CC[C@]1(C(=O)OC)[C@H]2C(=O)N(Cc3ccccc3)C(=O)[C@H]2[C@H]2CN=C(SCc3ccccc3)N21,"inconclusive: 79.4 µM [inhibitor, partial curve]"
6,COc1ccc(S(=O)(=O)N2CCN(c3ccc(C)cc3C)CC2)cc1OC,"inconclusive: 28.2 µM [inhibitor, full curve]"
7,CC1Cc2ccccc2N1CC(=O)c1c(N)n(Cc2ccccc2)c(=O)n(C)c1=O (configuration not stated),"inconclusive: 44.7 µM [inhibitor, single point]"
8,O=C(CSCc1ccc(F)cc1)N1CCc2c([nH]c3ccccc23)C1c1ccc(F)cc1 (configuration not stated),"inconclusive: 44.7 µM [inhibitor, partial curve]"
9,Cc1ccc(C(=O)Nc2ccc3c(c2)nc(CCNC(=O)c2ccco2)n3C)cc1,inactive
10,C=CCc1ccccc1OCC(CN1CCCCC1)OC(C)=O (configuration not stated),inactive
11,O=C(O)c1ccc(C(=O)c2cc([N+](=O)[O-])cc([N+](=O)[O-])c2)cc1,inactive
12,COc1ccc(C2(c3ccc(OC)cc3)NC(=O)N(CC(=O)N(C)c3ccccc3)C2=O)cc1,"inconclusive: 79.4 µM [inhibitor, partial curve]"
13,Cc1ccc(C)c2[nH]c(=O)c(CN(Cc3ccco3)C(=O)Nc3ccccc3)cc12,"inconclusive: 56.2 µM [inhibitor, partial curve]"
14,COc1ccc(C=CC(=O)c2c(OC)cc(OC)c(OC)c2O)cc1,"inconclusive: 20 µM [inhibitor, partial curve]"
15,Cc1ccc(S(=O)(=O)N2CCOC23CCN(C(=O)c2ccc(Cl)cc2Cl)CC3)cc1,inactive
16,COc1ccc(NC(=O)C2CCCCN2S(=O)(=O)c2ccc(F)cc2)c(OC)c1 (configuration not stated),"inconclusive: 89.1 µM [inhibitor, partial curve]"
17,CCOc1cnc(-c2c(-c3ccccc3Cl)noc2C)o1,"inconclusive: 79.4 µM [inhibitor, partial curve]"
18,OC(CSc1c(Cl)cccc1Cl)CN1CCN(c2ccc(F)cc2)CC1 (configuration not stated),"inconclusive: 15.8 µM [inhibitor, full curve]"
19,C=CCn1c(CCNC(=O)c2cccs2)nnc1SCC(=O)c1ccc(Br)cc1,inactive
20,CC(C)(C)C(=O)Nc1nnc2n1CCS2,inactive
21,O=C(Nc1c(Cl)cc([N+](=O)[O-])cc1Cl)c1cc(Cl)cc(Cl)c1O,"inconclusive: 50.1 µM [inhibitor, partial curve]"
22,CCOC(=O)N1CCN(S(=O)(=O)c2ccc(C(=O)NNc3nc4c(C)cccc4s3)cc2)CC1,"inconclusive: 31.6 µM [inhibitor, partial curve]"
23,Cc1cc(C)n(C(=O)CNC(=O)Cc2ccccc2)n1,inactive
24,Cc1cc(C)c(S(=O)(=O)NCCc2sc(-c3cccnc3)nc2C)c(C)c1,inactive

row,SMILES,Potency
1,Cc1ccc(-n2nnc(-c3ccnc4ccccc34)n2)cc1,"inconclusive: 3.55 µM [inhibitor, single point]"
2,COc1ccc(S(=O)(=O)Nc2ccccc2C(=O)Nc2nc(-c3ccc(F)cc3)cs2)cc1OC,"inconclusive: 0.708 µM [inhibitor, full curve, poor fit]"
3,O=C(Nc1ccc(Oc2ccccc2)cc1)C1CCCO1 (configuration not stated),active: 100 µM
4,CC(=O)Nc1ccc(OCCOc2ccc([N+](=O)[O-])cc2)cc1,inactive
5,Cc1ccc(Cl)cc1N1CCN(S(=O)(=O)c2ccc3[nH]c(=O)c(=O)[nH]c3c2)CC1,"inconclusive: 28.2 µM [inhibitor, partial curve]"
6,CN(Cc1ccco1)C(=O)Cn1c(=O)oc2cc(S(=O)(=O)NCc3ccccc3)ccc21,"inconclusive: 100 µM [inhibitor, single point]"
7,Cc1ccsc1-c1n[nH]c(=S)n1CC(C)C,active: 8.91 µM
8,COc1ccc(S(=O)(=O)NCC(c2cccnc2)N2CCN(c3ccccc3OC)CC2)cc1C (configuration not stated),"inconclusive: 79.4 µM [inhibitor, partial curve]"
9,O=C(Nc1ccc2c(c1)OCCO2)c1cc(-c2ccccc2)nc2ccccc12,"inconclusive: 79.4 µM [inhibitor, partial curve, poor fit]"
10,CC1(C)SC(=S)N(NC(=O)Nc2ccccc2)C1N(O)C(=O)Nc1ccccc1 (configuration not stated),"inconclusive: 89.1 µM [inhibitor, single point]"
11,Cc1ccc(NC(=O)C(OC(=O)c2ccc(F)cc2)c2ccccc2)cc1Cl (configuration not stated),inactive
12,O=C(Nc1nc2c(F)cc(F)cc2s1)c1ccc2c(c1)OCCO2,"inconclusive: 89.1 µM [inhibitor, single point]"
13,CN(C)c1ccc(-c2cccc(C3CC=CC4C3C(=O)N(Cc3ccccc3)C4c3ccc(C(F)(F)F)cc3)c2)cc1 (configuration not stated),"inconclusive: 3.98 µM [inhibitor, full curve, poor fit]"
14,COC(=O)c1ccc(N2CCC(C)CC2)c(N)c1,"inconclusive: 44.7 µM [inhibitor, partial curve]"
15,O=C1N[C@@H](Cc2c[nH]c3ccccc23)COC(=O)[C@@H](Cc2ccc(F)cc2)CC/C=C/C[C@@H]1CC(=O)N(CCO)Cc1ccccc1,"inconclusive: 11.2 µM [inhibitor, full curve]"
16,CCSc1nnc(NC(=O)C2CC(=O)N(Cc3ccc(C)cc3)C2)s1 (configuration not stated),inactive
17,CC(=O)C(Cc1ccccc1)NC(=O)CN1CCN(Cc2ccccc2)CC1 (configuration not stated),inactive
18,Cc1nn(-c2ccccc2)c(C)c1/C=C/C(=O)OCC(=O)Nc1ncc(Cl)cc1Cl,"inconclusive: 70.8 µM [inhibitor, single point]"
19,Cc1ccccc1NC(=O)CN1CCN(C)CC1,active: 3.16 µM
20,CC(C)(C)c1ccccc1OCCCCCn1ccnc1,active: 2.82 µM
21,COc1ccc(S(=O)(=O)N2CCC3(CC2)OCCN3S(=O)(=O)c2cccs2)cc1OC,inactive
22,O=c1cc(-c2ccccc2)nc2cc(-c3ccco3)[nH]n12,inactive
23,C#CCOCCOCCOCCNc1nc(N2CCOCC2)nc(N2CCN(C(=O)[C@H](Cc3cc4ccccc4[nH]3)n3cc([C@@H](N)Cc4ccc(O)cc4)nn3)CC2)n1,"inconclusive: 25.1 µM [inhibitor, full curve]"
24,CC(=O)c1sc(N)nc1C,"inconclusive: 100 µM [inhibitor, single point]"
